Our source for the survival values is PubChem BioAssay AID463173 (ICCB-Longwood Screening Facility, Harvard Medical School, 2010).

The campaign covered roughly 52,000 compounds. About 4,300 (8.3%) were called active. Rule as the data show it: active = survival mostly below about 52% (no sharp cut-off); inactive = mostly above about 56%. The list shows a part of the results.

The assay has as its system DeltatarO mutant. The assay can be described thus: growth inhibition of S. aureus wild type versus tarO mutant, primary screen, teichoic acid synthesis inhibitors, RN4220, OD600 (AID 463173). As to conditions: OD600, 18 h, hits give low values, screened at 18.75 µg/mL (by protocol).
Regarding `Cc1cccc(C)c1NC(=O)C(=O)NCC(c1ccc2c(c1)OCO2)N1CCOCC1` (configuration not stated), the survival was inactive: 80%. The result for `CCOC(=O)c1cnc2c(Cl)cc(Cl)cc2c1Nc1cc(C(=O)O)ccc1C` reads inactive: 60%. Consider `Cc1cccc(NC(=O)c2ccc3c(O)c(S(=O)(=O)c4ccccc4)c(=O)[nH]c3c2)c1C`, for which the survival is inactive: 88%. In the case of `Cc1ccccc1-c1nc(CS(=O)(=O)CC(=O)NCCc2ccccc2)c(C)o1` it was inactive: 59%; in that of `O=C(Nc1ccc2nc(SCC(=O)N3CCc4ccccc43)sc2c1)c1cccc(F)c1`, inactive: 69%; in that of `CCOC(=O)c1sc(=S)n(C)c1C`, inactive: 88%. `COc1ccc(Cl)cc1NC(=O)CSc1nc2ccccc2c2nc(-c3ccccc3)nn12`: the survival is inactive: 94%. In the case of `Cc1ccc(C(=O)N2CCc3cc(CNC(=O)c4ccc(Br)cc4)ccc32)cc1` it was inactive: 83%; in that of `Cc1ccc(C(=O)Nc2ccccc2)cc1S(=O)(=O)Nc1ccc(Br)cc1`, active: 6%; in that of `CCn1c(SCc2cccc(Br)c2)nnc1-c1nonc1NC(C)=O`, inactive: 108%. The result for `CC(C)CNC(=O)C(=O)Nc1c2c(nn1-c1ccccc1)CS(=O)(=O)C2` reads inactive: 81%.

As to `CSc1cccc(NC(=O)Cn2c(=O)n(Cc3ccccc3)c(=O)c3sc4ccccc4c32)c1`, the survival was inactive: 91%. As to `CC(=O)Nc1cc(C(=O)NCc2ccc(C)cc2)ccc1S(=O)(=O)c1ccc(Cl)cc1`, the survival is inactive: 87%. The result for `CCOc1ccc2nc(NCCNC(=S)NC)c(C#N)cc2c1` reads inactive: 79%; that for `COCCCn1c(=N)c(C(=O)NCc2ccco2)cc2c(=O)n3cccc(C)c3nc21`, inactive: 57%; that for `CCc1ccccc1NC(=O)Nc1cc(C(=O)NCc2cccc(F)c2)ccc1N1CCCC1`, inactive: 88%. The result for `O=C(Cn1ncn2nc(-c3cccs3)cc2c1=O)NCc1ccc(Cl)cc1` reads inactive: 63%; that for `CCc1ccc(S(=O)(=O)c2nnn3c2nc(Nc2ccc(C)c(Cl)c2)c2sccc23)cc1`, inactive: 41%; that for `Cc1oc(-c2cccc(Cl)c2)nc1CN1CCCC(C(=O)NCCc2ccc(Cl)cc2)C1` (configuration not stated), active: -6%. Turning to `Cc1cccc(-n2ncc(C(=O)N3CCN(Cc4ccccc4)CC3)c2C2CCN(C(=O)OC(C)(C)C)CC2)c1`, the survival was inactive: 75%.

On to `CCOc1ccc(N(C)S(=O)(=O)c2c(C(=O)N3CCC(C)CC3)c(C)n(C)c2C)cc1`, for which the survival was inactive: 102%. The result for `COc1ccc(Cn2c(CCC(=O)Nc3ccc(C)cc3)nc3cccnc32)cc1` reads inactive: 105%; that for `CCOc1ccccc1NC(=O)N1c2ccccc2Sc2ccccc21`, inactive: 55%; that for `Cc1cc(C)n(-c2nc3cc(Cl)ccc3nc2Nc2ccc(C)c(F)c2)n1`, inactive: 91%. In the case of `O=C(CN(Cc1ccc2c(c1)OCO2)C(=O)c1cnsn1)NC1CCCC1` it was inactive: 89%; in that of `CCn1ccc2cc(S(=O)(=O)N3CCC(C(=O)NCc4cccc(Cl)c4)CC3)ccc21`, inactive: 89%. In the case of `CCOC(=O)c1sc(N/C=C(\C#N)c2nc3cc(Cl)ccc3o2)c(C#N)c1C` it was inactive: 81%. As to `Cc1ccc(-n2ncc(C(=O)NCCN3CCCC3)c2C2CCN(C(=O)OC(C)(C)C)CC2)cc1`, the survival is inactive: 107%. Take `O=C(NC1CCN(C(=O)Nc2cccc(F)c2)CC1)c1ccco1`: the survival is inactive: 88%. In the case of `Cc1cccc(NC(=O)Cn2ncc3c4ccccc4n(Cc4ccccc4)c3c2=O)c1C` it was inactive: 89%.

Take `Cc1ccc(S(=O)(=O)CCC(=O)Nc2ccc(OC(F)(F)F)cc2)cc1`: the survival is inactive: 72%. In the case of `CCc1ccccc1NC(=O)Cn1c(=O)n(CCCCCC(=O)NCc2ccc(C)cc2)c(=O)c2sccc21` it was inactive: 66%; in that of `O=C(c1ccc2c(c1)N(Cc1ccccc1F)C(=O)c1ccccc1S2(=O)=O)N1CCc2ccccc21`, inactive: 80%. In the case of `CCC(Sc1nc2ccncc2[nH]1)C(=O)Nc1cc(Cl)ccc1C` (configuration not stated) it was inactive: 136%. The result for `COc1cc(Cl)c(C)cc1NC(=O)CSc1nc2c(c(=O)[nH]1)CCC2` reads inactive: 63%.

With `Cc1nn(-c2ccccc2)c2c1cc1c(=O)[nH]c(=O)nc-1n2-c1cccc(Cl)c1`, the survival was inactive: 80%. In the case of `COc1ccccc1/C=C/c1nc(C#N)c(N2CCN(C)CC2)o1` it was inactive: 92%; in that of `Cc1ccc(CNC(=O)C2CCN(S(=O)(=O)c3cccc4nonc34)CC2)cc1`, inactive: 65%. The result for `COc1ccccc1NC(=O)CSc1nnc(NC(=O)NC2CCCCC2)s1` reads inactive: 83%; that for `Oc1ccc(CNc2ccccc2C(F)(F)F)c2cccnc12`, inactive: 124%. The result for `Cc1cc(=O)c2cc(C(=O)Nc3ccc(C)c(C)c3)ccc2[nH]1` reads inactive: 89%. On to `Cc1ccc2oc(C(=O)Nc3ccc(S(=O)(=O)N(C)c4ccccc4)cc3)cc(=O)c2c1`, for which the survival was inactive: 99%. Turning to `O=C(Nc1ccccc1)NC1CCN(CCCN2C(=O)c3ccccc3C2=O)CC1`, the survival was inactive: 108%. In the case of `CCc1ccc(NCc2cc3cc4c(cc3n(CC(=O)Nc3ccccc3OC)c2=O)OCCO4)cc1`, the survival is inactive: 87%. For `COc1ccc(C(=O)N2CCC(c3nc4ccccc4s3)CC2)cc1Cl`, the survival was inactive: 62%. In the case of `Cc1cc(NC(=O)Nc2nnc(N(C)C3CCCCC3)s2)ccc1Br` it was inactive: 72%. In the case of `Cc1ccc(N2CC(c3nc(-c4ccc(Cl)cc4)no3)CC2=O)cc1F` (configuration not stated) it was inactive: 98%; in that of `Cc1cc(N2CCC(C(=O)Nc3ccc(F)cc3C)CC2)n2nc(C)c(-c3ccc(Cl)cc3)c2n1`, inactive: 96%; in that of `O=C(NCCc1ccc(Cl)cc1)c1ccco1`, inactive: 98%. Turning to `Cc1cc(Br)ccc1NC(=O)C1CCCN(S(=O)(=O)c2cccc3nonc23)C1` (configuration not stated), the survival is inactive: 70%. For the molecule `CCOC(=O)c1cccc(NC(=O)CC2C(=O)N(c3ccc(Cl)cc3)C(=O)N2C2CCCC2)c1` (configuration not stated), the survival is inactive: 88%.

Turning to `FC(F)(F)c1cccc(-n2nnnc2-c2ccccc2)c1`, the survival was inactive: 107%. The result for `CS(=O)(=O)N1CCC(c2nc(-c3ccc(S(=O)(=O)NCC4CCCO4)cc3)no2)CC1` (configuration not stated) reads inactive: 85%; that for `CCOc1ccccc1NC(=O)CSc1nc2c(sc3ccccc32)c(=O)n1CCCC(=O)NC1CCCC1`, inactive: 65%; that for `COc1cc(NC(=O)C2CCN(S(=O)(=O)c3ccc4c(c3)CCCC(=O)N4)CC2)cc(OC)c1`, inactive: 89%. In the case of `CCOC(=O)c1c(S(=O)(=O)N2CCCC(C(=O)NCc3ccccc3Cl)C2)c(C)n(C)c1C` (configuration not stated) it was inactive: 122%; in that of `CCc1cccc(CC)c1NC(=O)C1CCC(CNS(=O)(=O)c2cccc3nsnc23)CC1` (configuration not stated), inactive: 73%. The result for `COc1ccc2cc3cc(C(=O)Nc4cc(C)c(Cl)cc4OC)oc3nc2c1` reads inactive: 96%.

Turning to `CC(=O)c1cccc(NS(=O)(=O)c2cc(-c3onc(C)c3C)ccc2C)c1`, the survival was inactive: 83%. In the case of `COc1cc(Cl)c(NC(=O)c2cc(S(=O)(=O)N3CCCCC3)c[nH]2)c(OC)c1` it was inactive: 119%; in that of `COc1ccc(S(=O)(=O)NCCc2sc(-c3cccnc3)nc2C)c(F)c1`, inactive: 72%. The result for `CCc1ccc(C2c3c(oc4ccc(F)cc4c3=O)C(=O)N2CCc2ccc(OC)cc2)cc1` (configuration not stated) reads inactive: 94%; that for `COc1ccc(CNCCCSc2nnnn2-c2ccccc2)cc1`, inactive: 51%. In the case of `Cc1ccc(CNC(=O)Cn2c(=O)ccc3cc(S(=O)(=O)N4CCC(C)CC4)ccc32)cc1` it was active: 37%; in that of `COc1ccc(-c2cc(C(=O)NC(C)c3ccccc3)c3cc(C(C)C)ccc3n2)cc1` (configuration not stated), inactive: 101%. For the molecule `CCN(CC)CCNC(=O)C(=O)NCC(c1cccnc1)N1CCN(c2ccc(F)cc2)CC1` (configuration not stated), the survival was inactive: 79%. The result for `O=C(Nc1ccccc1C(F)(F)F)c1cc(-c2ccc3c(c2)OCCO3)on1` reads inactive: 117%; that for `COc1cccc(CNC(=O)c2ccc(CNS(=O)(=O)c3ccc(C)cc3)cc2)c1`, inactive: 74%; that for `CCN(c1ccccc1)S(=O)(=O)c1nnc(NC(=O)c2ccccc2)s1`, active: 38%.

As to `CNC(=O)c1ccc(CN2CCc3ccccc3C2)cc1`, the survival was inactive: 100%. With `COCCN1C(=O)C(=O)/C(=C(/O)c2ccccc2)C1c1ccccc1` (configuration not stated), the survival was inactive: 102%. The result for `Cc1cccc(N2CCN(C(=O)c3cnn(-c4ccccc4Cl)c3C3CCN(C(=O)OC(C)(C)C)CC3)CC2C)c1` (configuration not stated) reads inactive: 93%; that for `O=C(CCN1C(=O)c2ccccc2Sc2ncccc21)Nc1ccc(F)cc1F`, inactive: 77%.

Take `COc1ccc(C2NC(=O)NC(C)=C2C(=O)Nc2ccccc2)cc1OC` (configuration not stated): the survival is inactive: 116%. In the case of `COc1cccc(C(=O)N2c3ccc(C)cc3C(C)(c3ccccc3)CC2(C)C)c1` (configuration not stated) it was active: -5%; in that of `Cc1ccccc1C(=O)Nc1sc2c(c1C(=O)N1CCCCC1)CCC(C)C2` (configuration not stated), inactive: 49%. `Cc1ccc(CC(=O)Nc2ccc3c(c2)N(C)C(=O)c2ccccc2S3)cc1`: the survival was inactive: 117%.

On to `Cc1ccccc1C(=O)N/N=C1/SCC(=O)N1Cc1ccc2c(c1)OCO2`, for which the survival was inactive: 114%. Consider `COc1cc2c(cc1OC)n(CC(=O)c1cccc(Cl)c1)c(=O)n1nc(CCn3nc(C)cc3C)nc21`, for which the survival was inactive: 80%.

Take `Cc1ccc(Nc2sc(C(=O)c3ccccc3)c(N)c2C(=O)Nc2ccc(Cl)cc2)cc1`: the survival is inactive: 55%.

`CCOCCCNC(=O)c1cc(Sc2cccc(Cl)c2)nc2ccccc12`: the survival was inactive: 74%. Consider `Cc1ccc(NC(=O)Cn2c(=O)n(Cc3nc(C)no3)c(=O)c3cc4c(cc32)OCO4)c(C)c1`, for which the survival was inactive: 83%. The result for `CC(C)c1ccc(NC(=O)CSc2nc(=O)n(Cc3ccccn3)c3c2CCC3)cc1` reads inactive: 116%. Regarding `N#Cc1nc(COc2cccc(Cl)c2)oc1NCCc1ccccc1`, the survival is active: 39%. In the case of `CCCn1c(SCc2nc(-c3ccccc3OCC)no2)nnc1-c1ccc(Cl)cc1` it was active: 43%; in that of `COC(=O)CSc1nnc(-c2ccco2)n1Cc1ccco1`, inactive: 96%; in that of `CCOc1ccccc1C(=O)N(Cc1cc(OC)c(OC)c(OC)c1)c1ccccn1`, inactive: 90%.
